Data published in PMC10668032.
The other results are listed elsewhere or left out. At the low end of the ranking, values are background and their order means little.

target: SIX1-Q177R homeodomain (UniProt Q15475); assay: universal protein binding microarray; conditions: Universal all-10-mer PBM (8x60K, AMADID 030236), 300 nM GST-tagged protein, Alexa Fluor 488 anti-GST; buffer, salt, pH and temperature not stated; high values mean tight binding; most listed sequences are background and not binding sites; double strand, one strand shown

Which binding signal does the source give for ATCGGGAA here?
The binding signal was -0.245 E-score.

ATTACCCC was tested. Which binding signal did it give?
The binding signal was 0.294 E-score.

CACCGGCG was tested. Which binding signal did it give?
Its binding signal is 0.244 E-score.

For ATTTGGAA, which binding signal is on record?
Its binding signal is -0.0523 E-score.

With ACACGAAT as the sequence, how does the binding signal read?
Its binding signal is 0.31 E-score.

Which binding signal does the source give for CATGCTGA here?
The binding signal was -0.0309 E-score.

CTCACGTA was tested. Which binding signal did it give?
The binding signal was -0.0413 E-score.

Which binding signal does the source give for CAGCGAGG here?
Its binding signal is -0.12 E-score.

How did the binding signal turn out when AGACCAGC was run?
The binding signal was -0.213 E-score.

Which binding signal does the source give for TCGTTTAA here?
The binding signal was -0.25 E-score.

CAATCCGA was tested. Which binding signal did it give?
The binding signal was -0.113 E-score.

With ATGAAAAT as the sequence, how does the binding signal read?
Its binding signal is -0.19 E-score.

Which binding signal does the source give for ATTGTTAG here?
The binding signal was -0.173 E-score.

TGGGAACA was tested. Which binding signal did it give?
Its binding signal is 0.172 E-score.

With ATGGGACG as the sequence, how does the binding signal read?
Its binding signal is -0.311 E-score.

With ACGTCCAA as the sequence, how does the binding signal read?
Its binding signal is -0.105 E-score.

For AGACTCAC, which binding signal is on record?
Its binding signal is -0.0936 E-score.

For AAGGTGCT, which binding signal is on record?
Its binding signal is 0.0677 E-score.

Which binding signal does the source give for ACATAGAT here?
The binding signal was -0.33 E-score.

AATTGTGG was tested. Which binding signal did it give?
Its binding signal is 0.0421 E-score.

GGGTCCGA was tested. Which binding signal did it give?
The binding signal was 0.0814 E-score.

With AAACCTAC as the sequence, how does the binding signal read?
The binding signal was 0.00187 E-score.

With CACCTCGG as the sequence, how does the binding signal read?
Its binding signal is 0.269 E-score.

AAAATTTA was tested. Which binding signal did it give?
The binding signal was -0.31 E-score.

For ATCATCAG, which binding signal is on record?
Its binding signal is -0.231 E-score.

CCGCAAGA was tested. Which binding signal did it give?
The binding signal was -0.249 E-score.

AATCTAAC was tested. Which binding signal did it give?
The binding signal was -0.0446 E-score.

Which binding signal does the source give for CTGCACGC here?
Its binding signal is -0.134 E-score.

ATGATAGC was tested. Which binding signal did it give?
Its binding signal is -0.0849 E-score.

ATTGGGCG was tested. Which binding signal did it give?
The binding signal was -0.0009 E-score.

AAAAATGA was tested. Which binding signal did it give?
Its binding signal is -0.212 E-score.

With AGATTGAC as the sequence, how does the binding signal read?
The binding signal was -0.0336 E-score.

With AAGCCTGT as the sequence, how does the binding signal read?
Its binding signal is -0.209 E-score.

GGAACACC was tested. Which binding signal did it give?
The binding signal was 0.474 E-score.

GGGCGCTA was tested. Which binding signal did it give?
The binding signal was 0.0962 E-score.

How did the binding signal turn out when GCCGCATA was run?
The binding signal was 0.00196 E-score.

ACCATTGC was tested. Which binding signal did it give?
Its binding signal is -0.0641 E-score.

With CTAGGACC as the sequence, how does the binding signal read?
The binding signal was -0.134 E-score.

Which binding signal does the source give for CTGCTACC here?
The binding signal was -0.151 E-score.

AGTAGCCG was tested. Which binding signal did it give?
The binding signal was 0.0101 E-score.

How did the binding signal turn out when ATGGGTAA was run?
Its binding signal is -0.022 E-score.

How did the binding signal turn out when CCAGTCGC was run?
Its binding signal is -0.108 E-score.

ATTTTATA was tested. Which binding signal did it give?
The binding signal was -0.0862 E-score.

With CAGGTGGG as the sequence, how does the binding signal read?
Its binding signal is 0.0536 E-score.

How did the binding signal turn out when AACTCGGC was run?
The binding signal was -0.0225 E-score.

Which binding signal does the source give for AAGCTAGA here?
The binding signal was -0.192 E-score.

With ACAGTCGA as the sequence, how does the binding signal read?
Its binding signal is -0.191 E-score.

AGTTTGTG was tested. Which binding signal did it give?
Its binding signal is -0.0491 E-score.

Which binding signal does the source give for CAAGGTGC here?
Its binding signal is 0.124 E-score.

How did the binding signal turn out when TAGATCCA was run?
The binding signal was -0.053 E-score.

With ACCCCCAG as the sequence, how does the binding signal read?
The binding signal was 0.23 E-score.

How did the binding signal turn out when CGATTCCG was run?
Its binding signal is -0.0162 E-score.

How did the binding signal turn out when CATAAAAC was run?
The binding signal was -0.0368 E-score.

How did the binding signal turn out when ATCCGAGC was run?
The binding signal was -0.114 E-score.

AGGCGCTC was tested. Which binding signal did it give?
Its binding signal is -0.094 E-score.

Which binding signal does the source give for AAGTCCAG here?
The binding signal was -0.0406 E-score.

How did the binding signal turn out when ATATTTAG was run?
The binding signal was 0.0342 E-score.

With AACGGGAT as the sequence, how does the binding signal read?
The binding signal was -0.0665 E-score.

CATTACAA was tested. Which binding signal did it give?
The binding signal was -0.157 E-score.

Which binding signal does the source give for GACTTAGA here?
Its binding signal is -0.177 E-score.

How did the binding signal turn out when AGGTGCGA was run?
The binding signal was 0.0878 E-score.

How did the binding signal turn out when ATTTCGAG was run?
Its binding signal is -0.226 E-score.

For AAGGGGGA, which binding signal is on record?
The binding signal was 0.174 E-score.

GCCTAGAA was tested. Which binding signal did it give?
Its binding signal is -0.193 E-score.

For CCAACGAA, which binding signal is on record?
Its binding signal is -0.0433 E-score.

Which binding signal does the source give for CATAAAAA here?
The binding signal was -0.258 E-score.

Which binding signal does the source give for GTAGCCCA here?
Its binding signal is -0.126 E-score.

Which binding signal does the source give for TAGGTGGA here?
Its binding signal is -0.0388 E-score.

With AAGCTGAT as the sequence, how does the binding signal read?
The binding signal was 0.0276 E-score.

How did the binding signal turn out when CCAGACGA was run?
Its binding signal is -0.158 E-score.

Which binding signal does the source give for ATGCTCTC here?
Its binding signal is -0.247 E-score.

With CATAAGCC as the sequence, how does the binding signal read?
The binding signal was -0.192 E-score.

For ATCGTTTG, which binding signal is on record?
The binding signal was -0.187 E-score.

For CTGTCCGA, which binding signal is on record?
The binding signal was -0.128 E-score.

Which binding signal does the source give for CGCGGGTC here?
Its binding signal is 0.0962 E-score.

How did the binding signal turn out when TGGGGACA was run?
Its binding signal is 0.146 E-score.

How did the binding signal turn out when CGATCCAG was run?
Its binding signal is 0.0116 E-score.

CGTGTTAA was tested. Which binding signal did it give?
Its binding signal is 0.391 E-score.

For CAGGGTCG, which binding signal is on record?
Its binding signal is 0.0841 E-score.

How did the binding signal turn out when ACGTGGAC was run?
The binding signal was -0.144 E-score.

How did the binding signal turn out when ACTAAGGC was run?
Its binding signal is -0.209 E-score.

Which binding signal does the source give for CACGAGTG here?
The binding signal was 0.317 E-score.

Which binding signal does the source give for TGACCTCA here?
The binding signal was 0.0447 E-score.

AAGGGCAT was tested. Which binding signal did it give?
Its binding signal is -0.146 E-score.

Which binding signal does the source give for AATAGCTC here?
The binding signal was -0.133 E-score.

Which binding signal does the source give for CAGATAGC here?
The binding signal was -0.26 E-score.

For CTCACAAC, which binding signal is on record?
The binding signal was -0.0671 E-score.

With CCTCGCAG as the sequence, how does the binding signal read?
The binding signal was -0.0925 E-score.

With CCGTCGCC as the sequence, how does the binding signal read?
The binding signal was -0.0877 E-score.

With CCTGAAGG as the sequence, how does the binding signal read?
The binding signal was -0.0523 E-score.

For AATCGTTG, which binding signal is on record?
The binding signal was -0.0486 E-score.

Which binding signal does the source give for AGTAGGGA here?
Its binding signal is -0.218 E-score.

How did the binding signal turn out when CAAGCAGA was run?
Its binding signal is -0.166 E-score.

CCGTCCAG was tested. Which binding signal did it give?
Its binding signal is -0.0624 E-score.
